Data reported in PMC4336329 (PLoS ONE, 2015).
In all, about 310,000 compounds went through this assay and about 2,200 (0.71%) showed an effect of 50% or more. Effects have a minus sign here. Some of the results follow.

molecular target: human ether-à-go-go-related gene (hERG) potassium channel (human, UniProt Q12809); experiment: primary screen, population patch clamp on CHO cells stably expressing hERG
Sequence (Q12809 whole entry, looked up): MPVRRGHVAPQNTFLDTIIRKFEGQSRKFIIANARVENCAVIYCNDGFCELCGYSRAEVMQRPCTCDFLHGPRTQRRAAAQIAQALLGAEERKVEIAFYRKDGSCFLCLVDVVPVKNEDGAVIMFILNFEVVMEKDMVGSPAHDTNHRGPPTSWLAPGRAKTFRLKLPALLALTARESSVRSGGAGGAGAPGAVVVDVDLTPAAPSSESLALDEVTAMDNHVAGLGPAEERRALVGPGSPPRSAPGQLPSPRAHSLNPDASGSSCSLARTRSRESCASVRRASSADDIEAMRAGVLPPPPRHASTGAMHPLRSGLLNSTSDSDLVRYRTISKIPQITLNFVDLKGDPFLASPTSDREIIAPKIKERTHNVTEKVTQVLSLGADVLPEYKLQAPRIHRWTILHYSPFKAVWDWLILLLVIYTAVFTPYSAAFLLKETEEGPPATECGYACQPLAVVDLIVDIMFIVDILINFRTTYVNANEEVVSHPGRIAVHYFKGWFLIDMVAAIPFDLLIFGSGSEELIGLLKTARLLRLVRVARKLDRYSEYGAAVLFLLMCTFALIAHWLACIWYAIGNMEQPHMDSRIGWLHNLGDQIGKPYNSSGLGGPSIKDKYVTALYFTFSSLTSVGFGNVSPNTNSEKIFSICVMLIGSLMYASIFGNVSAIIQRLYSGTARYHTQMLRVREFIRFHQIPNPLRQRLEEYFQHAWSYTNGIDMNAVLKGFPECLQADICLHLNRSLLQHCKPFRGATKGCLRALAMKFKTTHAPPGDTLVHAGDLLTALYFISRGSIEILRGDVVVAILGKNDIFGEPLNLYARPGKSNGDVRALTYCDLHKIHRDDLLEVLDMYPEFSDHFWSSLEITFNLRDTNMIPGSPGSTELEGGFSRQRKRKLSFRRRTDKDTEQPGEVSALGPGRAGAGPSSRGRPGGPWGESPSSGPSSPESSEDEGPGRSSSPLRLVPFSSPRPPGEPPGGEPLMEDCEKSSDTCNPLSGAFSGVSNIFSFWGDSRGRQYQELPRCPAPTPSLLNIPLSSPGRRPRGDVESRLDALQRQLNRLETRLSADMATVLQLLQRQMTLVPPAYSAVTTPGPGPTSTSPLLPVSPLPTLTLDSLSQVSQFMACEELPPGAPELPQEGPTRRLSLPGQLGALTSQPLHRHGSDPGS

Row | Structure (SMILES) | hERG current change (%, negative = inhibition) at 1uM [%]
1 | COc1cccc(C(=O)N2CCN(c3ncccn3)CC2)c1 | 12.9
2 | COc1ccc(N(CC(=O)Nc2cc(C)ccc2C)S(=O)(=O)c2ccccc2[N+](=O)[O-])c(OC)c1 | 15.8
3 | O=C(CCS(=O)(=O)c1ccccc1)Nc1ccccc1F | 11.1
4 | Oc1ccccc1-c1cc(C(F)(F)F)nc(-c2ccccc2)n1 | 13.5
5 | COc1ccc(NC(=O)OCCn2c([N+](=O)[O-])cnc2C)cc1 | 14.3
6 | CCOC(=O)CCn1cc(F)c(=O)[nH]c1=O | 5.8
7 | Cc1nn(Cc2ccccc2Cl)c(C)c1NC(=O)c1nc2ncccn2n1 | 17.3
8 | C=CCc1cccc(Cl)c1OCCON1C(=O)CCC1=O | 7.73
9 | O=C(CN1CCN(S(=O)(=O)c2ccc3ccccc3c2)CC1)Nc1ccc(N2CCOCC2)cc1 | 7.82
10 | C[C@@H](NC(=O)c1[nH]cnc1C(=O)Nc1ccon1)c1ccccc1 | 12.7
11 | O=C(OCCCN1C(=O)c2ccccc2C1=O)c1ccco1 | -0.461
12 | CC(C(c1ccc2c(c1)OCO2)c1c(N)n(C)c(=O)n(C)c1=O)[N+](=O)[O-] (stereo not shown) | 7.38
13 | COc1ccccc1N1CCN(S(=O)(=O)c2cnc[nH]2)CC1 | 10.6
14 | C=Cn1cc[n+](CC(=O)c2ccc(OC)c(OC)c2)c1.[Br-] | 9.38
15 | COc1ccc(N2C(=O)C3C(C2=O)C2C=CC3C23CC3)c(OC)c1 (stereo not shown) | 20.4
16 | CCCCc1ncc(CN2CCN(Cc3ccc(C)cc3)C(CCO)C2)[nH]1 (stereo not shown) | -11.8
17 | O=C(CSc1ccc(-c2cccc([N+](=O)[O-])c2)nn1)N1CCCC1 | -12.9
18 | CSc1ccc(S(=O)(=O)NCCOc2ccccc2C)cc1 | 7.7
19 | c1ccc(CSc2ccc(-c3ccccn3)nn2)nc1 | 12.2
20 | Clc1ccc(-c2cnc3ccccc3n2)cc1 | 10.3
21 | Cc1cc(NC(=O)CCN2C(=O)C3C4C=CC(C4)C3C2=O)ccc1Br (stereo not shown) | -4.27
22 | O=C(CNC(=O)C12CC3CC(CC(C3)C1)C2)OCC(=O)N1CCCCC1 | 7.18
23 | COc1ccc(C(=O)NC2CC2)cc1OC1CCN(Cc2ccc(F)c(F)c2)CC1 | -70.2
24 | FC(F)(F)c1cnc(-c2cnc(-c3ccccn3)nc2)c(Cl)c1 | 4.72
25 | CCOc1ccc([C@@H]2CC=C(C(=O)O)CN2S(=O)(=O)c2ccc(C)cc2)cc1 | 6.85
